From publication PMC7430654 come the findings set out here.

Sequences of proteins named here, by UniProt entry; tags and fusion partners are left off.
UniProt Q9WTL8: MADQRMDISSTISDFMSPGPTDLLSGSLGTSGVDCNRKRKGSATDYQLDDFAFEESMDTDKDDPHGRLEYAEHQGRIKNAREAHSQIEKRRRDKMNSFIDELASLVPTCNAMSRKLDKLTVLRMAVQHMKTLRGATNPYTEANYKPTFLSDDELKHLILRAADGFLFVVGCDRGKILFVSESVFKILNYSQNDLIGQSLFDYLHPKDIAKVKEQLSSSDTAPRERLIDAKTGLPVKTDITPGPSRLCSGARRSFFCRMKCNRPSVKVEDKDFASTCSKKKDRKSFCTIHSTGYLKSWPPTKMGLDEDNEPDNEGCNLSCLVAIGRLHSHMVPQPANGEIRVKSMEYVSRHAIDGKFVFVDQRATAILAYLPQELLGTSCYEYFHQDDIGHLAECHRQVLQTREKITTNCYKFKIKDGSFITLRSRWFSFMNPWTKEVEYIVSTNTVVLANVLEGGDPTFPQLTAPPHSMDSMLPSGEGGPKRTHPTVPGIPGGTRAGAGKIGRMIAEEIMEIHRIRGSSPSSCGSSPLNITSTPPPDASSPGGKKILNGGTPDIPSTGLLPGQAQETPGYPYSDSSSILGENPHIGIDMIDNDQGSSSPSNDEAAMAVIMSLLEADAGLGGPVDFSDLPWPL

The target of assay [1] is T1, HA-tagged SGT1 (UniProt Q9CX34).
T1 sequence: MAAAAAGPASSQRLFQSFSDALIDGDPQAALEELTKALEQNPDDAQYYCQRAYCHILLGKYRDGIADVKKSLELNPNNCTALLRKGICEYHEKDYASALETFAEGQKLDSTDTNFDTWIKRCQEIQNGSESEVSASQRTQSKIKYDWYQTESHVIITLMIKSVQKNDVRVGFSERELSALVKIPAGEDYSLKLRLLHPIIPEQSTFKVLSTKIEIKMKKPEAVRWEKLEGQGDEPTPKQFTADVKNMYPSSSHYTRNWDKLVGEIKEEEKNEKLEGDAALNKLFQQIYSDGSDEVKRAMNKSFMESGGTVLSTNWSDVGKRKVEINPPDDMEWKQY
Kind of assay: co-IP; two tagged proteins co-expressed in HEK293T cells; lysis buffer 150 mM NaCl, 1% NP-40, 2 mM EDTA, 50 mM Tris pH 8.0; antibody to the tag overnight at 4 C, protein G agarose, immunoblot.

Assay [2] deals with HA-tagged BMAL1 (UniProt Q9WTL8). The description is as above.
The target of assay [3] is T2, SGT1, endogenous in U2OS cells (human (endogenous in U2OS)) (UniProt Q9Y2Z0).
T2 sequence: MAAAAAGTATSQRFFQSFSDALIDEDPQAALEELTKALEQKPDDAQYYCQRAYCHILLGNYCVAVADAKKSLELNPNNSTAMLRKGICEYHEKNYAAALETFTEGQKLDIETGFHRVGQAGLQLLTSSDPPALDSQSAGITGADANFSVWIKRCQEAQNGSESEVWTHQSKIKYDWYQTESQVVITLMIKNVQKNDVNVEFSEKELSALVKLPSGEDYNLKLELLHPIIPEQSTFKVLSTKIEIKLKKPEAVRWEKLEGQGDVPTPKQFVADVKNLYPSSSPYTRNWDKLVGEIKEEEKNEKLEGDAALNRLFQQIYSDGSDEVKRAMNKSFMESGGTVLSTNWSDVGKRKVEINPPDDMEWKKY
Kind of assay: co-IP; endogenous proteins in U2OS cell lysate; antibody against necdin or SGT1 or control IgG, protein G agarose, immunoblot. For orientation: Immunoblotting shows a protein as a band on a membrane.

In assay [4] the target is T3, FLAG-tagged necdin fragment, amino acids 190-325 (UniProt P25233).
T3 sequence: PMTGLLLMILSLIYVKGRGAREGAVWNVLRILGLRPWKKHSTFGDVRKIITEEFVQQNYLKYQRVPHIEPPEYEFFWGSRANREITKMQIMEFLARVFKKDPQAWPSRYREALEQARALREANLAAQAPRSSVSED
The assay is described as follows: co-IP; two tagged proteins co-expressed in HEK293T cells; lysis buffer 150 mM NaCl, 1% NP-40, 2 mM EDTA, 50 mM Tris pH 8.0; antibody to the tag overnight at 4 C, protein G agarose, immunoblot.

Assay [5] has as its target T4, FLAG-tagged necdin, full length (UniProt P25233).
T4 sequence: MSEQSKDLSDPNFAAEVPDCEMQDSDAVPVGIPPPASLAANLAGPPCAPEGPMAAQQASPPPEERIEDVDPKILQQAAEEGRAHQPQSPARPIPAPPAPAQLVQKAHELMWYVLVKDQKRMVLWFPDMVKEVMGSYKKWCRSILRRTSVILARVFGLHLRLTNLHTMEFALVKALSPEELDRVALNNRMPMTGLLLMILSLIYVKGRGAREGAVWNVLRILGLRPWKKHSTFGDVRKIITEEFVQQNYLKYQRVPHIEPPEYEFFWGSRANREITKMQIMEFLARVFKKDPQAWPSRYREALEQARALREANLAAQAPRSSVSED
Described as above.

These are yes or no findings as the source states them, for the method shown. Binding seen in cells or lysates may run through a third protein. Some entries that bind do so weakly or less than the wild type. For some assays here: Tags and fused reporters may be left off the sequences shown.

B1: FLAG-tagged necdin, full length (protein, UniProt P25233 1-325)
chain: MSEQSKDLSDPNFAAEVPDCEMQDSDAVPVGIPPPASLAANLAGPPCAPEGPMAAQQASPPPEERIEDVDPKILQQAAEEGRAHQPQSPARPIPAPPAPAQLVQKAHELMWYVLVKDQKRMVLWFPDMVKEVMGSYKKWCRSILRRTSVILARVFGLHLRLTNLHTMEFALVKALSPEELDRVALNNRMPMTGLLLMILSLIYVKGRGAREGAVWNVLRILGLRPWKKHSTFGDVRKIITEEFVQQNYLKYQRVPHIEPPEYEFFWGSRANREITKMQIMEFLARVFKKDPQAWPSRYREALEQARALREANLAAQAPRSSVSED
For B1, the binding result in assay [1] and in assay [2] was “binds” each time.

B2: necdin, endogenous in U2OS cells (protein, UniProt Q99608 1-321)
chain: MSEQSKDLSDPNFAAEAPNSEVHSSPGVSEGVPPSATLAEPQSPPLGPTAAPQAAPPPQAPNDEGDPKALQQAAEEGRAHQAPSAAQPGPAPPAPAQLVQKAHELMWYVLVKDQKKMIIWFPDMVKDVIGSYKKWCRSILRRTSLILARVFGLHLRLTSLHTMEFALVKALEPEELDRVALSNRMPMTGLLLMILSLIYVKGRGARESAVWNVLRILGLRPWKKHSTFGDVRKLITEEFVQMNYLKYQRVPYVEPPEYEFFWGSRASREITKMQIMEFLARVFKKDPQAWPSRYREALEEARALREANPTAHYPRSSVSED
Turning to B2, the binding result in assay [3] is on record as “binds”.

B3: HA-tagged SGT1 (protein, UniProt Q9CX34 1-336)
chain: MAAAAAGPASSQRLFQSFSDALIDGDPQAALEELTKALEQNPDDAQYYCQRAYCHILLGKYRDGIADVKKSLELNPNNCTALLRKGICEYHEKDYASALETFAEGQKLDSTDTNFDTWIKRCQEIQNGSESEVSASQRTQSKIKYDWYQTESHVIITLMIKSVQKNDVRVGFSERELSALVKIPAGEDYSLKLRLLHPIIPEQSTFKVLSTKIEIKMKKPEAVRWEKLEGQGDEPTPKQFTADVKNMYPSSSHYTRNWDKLVGEIKEEEKNEKLEGDAALNKLFQQIYSDGSDEVKRAMNKSFMESGGTVLSTNWSDVGKRKVEINPPDDMEWKQY
On to B3, for which the binding result in assay [4] and in assay [5] was “binds” throughout.
